Values joined by “and” are separate entries in the source; they are usually repeats but may differ in a detail not shown here. Equal values may be shown once. In all, about 420,000 compounds went through this assay and about 50,000 (12%) were called active. Inconclusive means that the source gave no clear call. Such entries were picked first, then a sample of the others. The call rests on the fitted dose curve; in most records, active means well fitted inhibition curve with a large enough effect; inconclusive means small, poorly fitted or top-dose-only effect; inactive means flat fitted curve, though single readings scatter. No potency is given beside an inconclusive call; the fits are too rough.
Experiment: qHTS for Inhibitors of human tyrosyl-DNA phosphodiesterase 1 (TDP1): qHTS in cells in presence of CPT; further: nearly all actives have a fitted effect of over 55% in size
Conditions: chicken DT40 Tdp1-/-;hTDP1 cells + 20 nM CPT, ATP luminescence, 48 h; activity change, negative = growth inhibition: at 46.2 µM (top of the series) unless noted
Summary of the method: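 Cell growth measured by CellTiter-Glo luminescence after a minimum 48 h, 37 C compound exposure with 20 nM CPT in Tdp1-knockout DT40 cells stably expressing hTDP1, seeded 400/well; qHTS titration format.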
On the % scale 0 is the no-effect control and ±100 the full control effect; potency means the concentration at half of the fitted maximal effect; tags describe the fitted curve by direction and shape.

| Structure (SMILES) | Potency | activity change, negative = growth inhibition |
| --- | --- | --- |
| O=C(Nc1ccccc1N1CCOCC1)c1ccccc1[N+](=O)[O-] | inactive | – |
| CCc1cccc2c1NC1(CCCC1)CC2C (configuration not stated) | inconclusive [inhibitor, partial curve, poor fit] | – |
| COCCCNC(=O)c1ccccc1N(Cc1ccccc1)S(=O)(=O)c1ccc(OC)cc1 | inconclusive [inhibitor, single point] | – |
| Cc1nn(-c2ccccc2)c(C)c1C(=O)OCC(=O)Nc1ccccc1F | inconclusive [inhibitor, single point] | – |
| O=c1ccncn1C1OC(CO)C(O)C1O (configuration not stated) | inactive | – |
| COC(=O)c1[nH]c2ccc(Br)cc2c1NC(=O)C(C)N1CCN(C2CCCCC2)CC1 (configuration not stated) | active: 5.17 µM | – |
| CCOc1ccc(C2CC(c3ccc(OC)cc3)n3ncnc3N2)cc1 (configuration not stated) | inconclusive [inhibitor, single point] | – |
| COc1ccc(C2CC(C(F)(F)F)n3nc(C(=O)Nc4ccc5c(c4)OCO5)cc3N2)cc1 (configuration not stated) | inconclusive [inhibitor, full curve] | – |
| CC1(C(=O)NCCc2c[nH]c3ccccc23)CCN1CC1CCCCC1 (configuration not stated) | inconclusive [inhibitor, single point] | – |
| CC1=NN(C(=O)COc2ccccc2)C(O)(c2ccccc2)C1 (configuration not stated) | active: 5.8 µM | – |
| Cc1nc2nc(-c3ccco3)[nH]n2c(=O)c1C | inactive | – |
| O=C(COC(=O)c1ccccc1)c1ccc(Br)cc1 | – | inconclusive: -18.8% [inhibitor] |
| COc1ccc(NC(=O)CN2CCN(S(=O)(=O)c3cccs3)CC2)cc1Cl | inconclusive [inhibitor, single point] | – |
| CC(C)Cn1cc(C(=O)NCCCN2CCCC2=O)c2c3ccccc3n(C)c2c1=O | inconclusive [inhibitor, partial curve] | – |
| CCOC(=O)c1sc2nc(CSc3ccccc3)nc(N3CCC(C(N)=O)CC3)c2c1C | inconclusive [inhibitor, single point] | – |
| O=C(N/N=C/c1ccccc1)c1ccc(N2CCOCC2)c([N+](=O)[O-])c1 | inactive | – |
| O=C(O)COc1ccccc1C1C2C(=O)N(c3ccccc3)C(=O)C2ON1c1ccccc1 (configuration not stated) | inconclusive [inhibitor, single point] | – |
| Cc1nn(-c2ccccc2)nc1C(=O)NNC(=O)c1cccc2ccccc12 | inactive | – |
| O=C(NNc1c(Cl)cc(Cl)cc1Cl)c1cccc([N+](=O)[O-])c1 | inconclusive [inhibitor, single point] | – |
| O=C(c1ccc(Cn2cc(Cl)cn2)cc1)N1CCN(c2ccccc2)CC1 | inactive | – |
| CCCCCNC(=O)c1cc(S(=O)(=O)N2CCCC2)ccc1F | inconclusive [inhibitor, single point] | – |
| COc1cccc(CN2C(=O)C(C)N(C(=O)c3c(F)cccc3F)c3ccccc32)c1 (configuration not stated) | active: 23.1 µM | – |
| NC(=S)N=Nc1c(O)n(CCCl)c2ccccc12 | active: 13 µM | – |
| Cn1c(=O)c2c([nH]c(OCc3ccc(Cl)cc3Cl)[n+]2Cc2ccc(F)cc2)n(C)c1=O | inconclusive [inhibitor, full curve] | – |

| Structure (SMILES) | Potency | activity change, negative = growth inhibition |
| --- | --- | --- |
| CCC1CCCCN1S(=O)(=O)c1ccc(C(=O)Nc2sc3c(c2C(=O)NC)CCC3)cc1 (configuration not stated) | active: 20.6 µM | – |
| CCOC(=O)N1CCC(N2C(=O)c3ccccc3C2Nc2cc(Cl)c(OC)cc2OC)CC1 (configuration not stated) | inconclusive [inhibitor, single point] | – |
| CN(C)S(=O)(=O)c1cccc(NC(=O)c2cc(-c3cccs3)nn2-c2cccc(Cl)c2)c1 | inconclusive [inhibitor, single point] | – |
| Cc1cccc(CS(=O)(=O)Cc2ccc(C(=O)NC3CCCCC3)o2)c1 | inactive | – |
| O=C(NCc1ccco1)c1cccc(-c2nnc(-c3ccccc3)o2)c1 | active: 20.6 µM | – |
| Fc1cccc(Cl)c1-c1nnc2ccc3ccccc3n12 | active: 25.9 µM | – |
| CCn1c(C)cc(O)c(C(=O)Nc2cccc(Cl)c2)c1=O | inconclusive [inhibitor, single point] | – |
| O=C(O)CCCCCN1C(=O)/C(=C\c2ccncc2)SC1=S | active: 23.1 µM | – |
| NCCCC[C@@H](C(=O)N1CCNCC1)n1cc([C@@H](N)CC(N)=O)nn1 | inconclusive [inhibitor, partial curve, poor fit] | – |
| CC(=O)C1=C(c2ccccc2)OC(N)=C(C#N)C1c1ccccc1C (configuration not stated) | inactive | – |
| NC(=O)c1ccc(C(F)(F)F)n(Cc2ccc(Cl)cc2)c1=O | inconclusive [inhibitor, single point] | – |
| Cc1ccc(NS(=O)(=O)c2c(C(=O)N3CCOCC3)c(C)n(C)c2C)cc1C | inactive | – |
| CCOc1ncccc1C(=O)Oc1ccc2c(c1)OCO2 | inconclusive [inhibitor, single point] | – |
| C=C1CCN([C@@H](C)C(=O)NCCCCCC)S(=O)(=O)c2ccccc21 | inactive | – |
| CCC(=O)N1CCN(c2cc3c(cc2F)c(=O)c(C(=O)O)cn3CC)CC1 | inactive | – |
| Cc1ccc(CSc2ncc(Cl)c(C(=O)NCCc3ccc(S(N)(=O)=O)cc3)n2)cc1 | inconclusive [inhibitor, single point] | – |
| O=C(CSc1nnc(CNc2ccc(Cl)cc2)o1)Nc1nc2c(s1)CCCC2 | active: 14.6 µM | – |
| O=S(=O)(c1ccc(F)cc1)N1CCC(O)(c2ccc3c(c2)OCO3)CC1 | inactive | – |
| CCc1cc(C(=O)Nc2cc(S(=O)(=O)N3CCCCC3)ccc2N2CCN(C)CC2)sc1C | active: 4.61 µM | – |
| CC1(C(=O)Nc2ccc3c(c2)OCO3)CCN1C(=O)Cc1cccs1 (configuration not stated) | – | inconclusive: -38.9% [inhibitor] |
| C=CCCO[C@@H]1O[C@@H](C)[C@H](O)C[C@H]1O | inactive | – |
| CC(C)(C)NCC(O)COc1cccc2c1CCC(=O)N2 (configuration not stated) | inactive | – |
| COc1ccc(S(=O)(=O)N(C)CC(=O)N2CCN(c3ccc(F)cc3)CC2)cc1OC | inconclusive [inhibitor, partial curve] | – |
| COc1ccccc1CCNC(=O)c1c(N)[nH]c(C(=O)c2ccccc2)c1-c1ccc(Br)cc1 | inconclusive [inhibitor, single point] | – |

| Structure (SMILES) | Potency | activity change, negative = growth inhibition |
| --- | --- | --- |
| COC(=O)c1ccc(CSc2cc(C)c3ccccc3n2)o1 | – | inconclusive: -31.6% [inhibitor] |
| Cc1cc(C(=O)NC2CCCN(Cc3ccc(Cl)cc3)C2)n(C)n1 (configuration not stated) | inconclusive [inhibitor, full curve] | – |
| COc1ccc(NC(=O)CSc2nc(-c3ccc(OC)cc3)[nH]c2-c2ccc(OC)cc2)cc1 | inconclusive [inhibitor, single point] | – |
| Cc1cc(C)c(NC(=O)Cn2nnc(C(=O)NCc3ccc4c(c3)OCO4)c2N)c(C)c1 | inactive | – |
| COC(=O)c1ccccc1NC(=O)Cc1nc(-c2ccccc2)sc1-c1ccc(C)cc1 | inconclusive [inhibitor, single point] | – |
| C[C@@H]1CN([C@@H](C)CO)C(=O)CCCn2nncc2CO[C@H]1CN(C)C(=O)Nc1ccc(-c2cccs2)cc1 | inactive | – |
| CC(C)(C)NS(=O)(=O)c1ccc(NC(=S)NC(=O)C2CCC2)cc1 | inconclusive [inhibitor, single point] | – |
| CC1(Cc2ccccc2F)C(=O)Nc2c(Cl)ccc(Cl)c21 (configuration not stated) | inconclusive [inhibitor, single point] | – |
| CN1Cc2c(N3CCOCC3)nc(SCc3ccccc3)c(C#N)c2CC1(C)C | inconclusive [inhibitor, partial curve] | – |
| Cc1cccc(C)c1-n1nnnc1C(c1cc2ccccc2o1)N1CCN(C/C=C/c2ccccc2)CC1 (configuration not stated) | active: 18.4 µM | – |
| N#Cc1ccccc1/C=N/Nc1nc(-c2ccccc2)c2cc(Br)ccc2n1 | inconclusive [inhibitor, single point] | – |
| CC(C)(C)NC(=O)C(c1cccs1)N(Cc1ccc(F)cc1)C(=O)c1csnn1 (configuration not stated) | inconclusive [inhibitor, single point] | – |
| C/C(=N/Nc1ccnc2cc(Cl)ccc12)c1ccc(O)cc1 | inconclusive [inhibitor, single point] | – |
| CCOC(=O)CSc1nc(Nc2ccc3c(c2)OCO3)c2ccccc2n1 | inconclusive [inhibitor, single point] | – |
| COc1cc(/C=C/C(=O)OCC(=O)NC(=O)NC(C)(C)C)ccc1O | inconclusive [inhibitor, single point] | – |
| Nc1ccc(-c2nc3ncccc3o2)cc1 | inactive | – |
| N#Cc1cc2c(OCC(O)CN3CCN(C(c4ccccc4)c4ccccc4)CC3)cccc2[nH]1 (configuration not stated) | active: 6.51 µM and active: 8.9 µM | – |
| CC1CCCCC1NC(=O)C1CCC(CNS(=O)(=O)c2ccccc2)CC1 (configuration not stated) | inactive | – |
| Cc1ccc(C)c(OCC(=O)Nc2ccc(N3CCOCC3)cc2)c1 | inconclusive [inhibitor, single point] | – |
| N#C/C(=C(/O)COC(=O)CSc1ccc(Cl)cc1)c1nc2ccccc2[nH]1 | active: 18.4 µM | – |
| Cc1ccc(OCCn2cc(/C=C/C(=O)O)c3ccccc32)cc1 | inactive | – |
| Cc1cccc(CN2C(=O)c3ccccc3S(=O)(=O)c3ccc(C(=O)NCCC4=CCCCC4)cc32)c1 | inconclusive [inhibitor, single point] | – |
| CCOc1ccc(CN(C)C(=O)CCN2C(=O)c3ccccc3C2=O)cc1OC | inactive | – |
| COc1ccc(CNC(=O)Nc2nc(C(N)Cc3ccc(F)cc3)cs2)cc1 (configuration not stated) | inconclusive [inhibitor, single point] | – |

— PubChem BioAssay AID686979 (National Center for Advancing Translational Sciences (NCATS), 2013)
